This is one part of the list.
Tests used:
Test in all cases: glycan array binding signal (z-score within array); higher = stronger binding
Conditions in all cases: glycan notation: IUPAC condensed, linker removed
Gal3S(b1-4)Glc6S = target: Gal3S(b1-4)Glc6S
How it was run: (§1)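 From the Consortium for Functional Glycomics database, 3228 arrays were curated, keeping only those whose protein sequence was available. Binding is given as a within-array Z-score averaged across arrays sharing a protein sequence and across linkers. Negative Z-scores can be read as non-binding.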

Gal3S(b1-4)GlcNAc = target: Gal3S(b1-4)GlcNAc
How it was run: as §1

Gal3S(b1-4)GlcNAc6S = target: Gal3S(b1-4)GlcNAc6S
How it was run: as §1

[1] = target: Gal3S(b1-4)[Fuc(a1-3)]Glc
How it was run: as §1

Gal3S4S(b1-4)GlcNAc = target: Gal3S4S(b1-4)GlcNAc
How it was run: as §1

Gal3S6S(b1-4)GlcNAc = target: Gal3S6S(b1-4)GlcNAc
How it was run: as §1

Gal3S6S(b1-4)GlcNAc6S = target: Gal3S6S(b1-4)GlcNAc6S
How it was run: as §1

Gal4S(b1-4)GlcNAc = target: Gal4S(b1-4)GlcNAc
How it was run: as §1

Gal4S6S(b1-4)GlcNAc = target: Gal4S6S(b1-4)GlcNAc
How it was run: as §1

Gal6S(b1-4)Glc = target: Gal6S(b1-4)Glc
How it was run: as §1

Gal6S(b1-4)Glc6S = target: Gal6S(b1-4)Glc6S
How it was run: as §1

Gal6S(b1-4)GlcNAc = target: Gal6S(b1-4)GlcNAc
How it was run: as §1

Gal6S(b1-4)GlcNAc6S = target: Gal6S(b1-4)GlcNAc6S
How it was run: as §1

GalNAc(a1-3)Gal = target: GalNAc(a1-3)Gal
How it was run: as §1

GalNAc(a1-3)GalNAc = target: GalNAc(a1-3)GalNAc
How it was run: as §1

GalNAc(b1-3)Gal = target: GalNAc(b1-3)Gal
How it was run: as §1

[2] = target: GalNAc(b1-3)Gal(a1-4)Gal(b1-4)GlcNAc
How it was run: as §1

GalNAc(b1-3)GalNAc = target: GalNAc(b1-3)GalNAc
How it was run: as §1

GalNAc(b1-4)GlcNAc = target: GalNAc(b1-4)GlcNAc
How it was run: as §1

Glc(a1-4)Glc = target: Glc(a1-4)Glc
How it was run: as §1

Glc(a1-6)Glc(a1-6)Glc = target: Glc(a1-6)Glc(a1-6)Glc
How it was run: as §1

Glc(b1-4)Glc = target: Glc(b1-4)Glc
How it was run: as §1

Glc(b1-6)Glc = target: Glc(b1-6)Glc
How it was run: as §1

GlcA(b1-3)Gal = target: GlcA(b1-3)Gal
How it was run: as §1

GlcA(b1-3)GlcNAc = target: GlcA(b1-3)GlcNAc
How it was run: as §1

GlcA(b1-6)Gal = target: GlcA(b1-6)Gal
How it was run: as §1

[3] = target: GlcNAc(a1-3)Gal(b1-4)GlcNAc
How it was run: as §1

[4] = target: GlcNAc(a1-6)Gal(b1-4)GlcNAc
How it was run: as §1

[5] = target: GlcNAc(b1-2)Gal(b1-3)GalNAc
How it was run: as §1

[6] = target: GlcNAc(b1-2)Man(a1-3)[GlcNAc(b1-2)Man(a1-6)]Man(b1-4)GlcNAc(b1-4)GlcNAc
How it was run: as §1

GlcNAc(b1-3)Gal = target: GlcNAc(b1-3)Gal
How it was run: as §1

[7] = target: GlcNAc(b1-3)Gal(b1-3)GalNAc
How it was run: as §1

GlcNAc(b1-3)Gal(b1-4)Glc = target: GlcNAc(b1-3)Gal(b1-4)Glc
How it was run: as §1

[8] = target: GlcNAc(b1-3)Gal(b1-4)GlcNAc
How it was run: as §1

[9] = target: GlcNAc(b1-3)Gal(b1-4)GlcNAc(b1-3)Gal(b1-4)GlcNAc
How it was run: as §1

GlcNAc(b1-3)GalNAc = target: GlcNAc(b1-3)GalNAc
How it was run: as §1

GlcNAc(b1-3)Man = target: GlcNAc(b1-3)Man
How it was run: as §1

B1: L-Selectin (Mus musculus), P18337 (protein)
chain: MVFPWRCEGTYWGSRNILKLWVWTLLCCDFLIHHGTHCWTYHYSEKPMNWENARKFCKQNYTDLVAIQNKREIEYLENTLPKSPYYYWIGIRKIGKMWTWVGTNKTLTKEAENWGAGEPNNKKSKEDCVEIYIKRERDSGKWNDDACHKRKAALCYTASCQPGSCNGRGECVETINNHTCICDAGYYGPQCQYVVQCEPLEAPELGTMDCIHPLGNFSFQSKCAFNCSEGRELLGTAETQCGASGNWSSPEPICQVVQCEPLEAPELGTMDCIHPLGNFSFQSKCAFNCSEGRELLGTAETQCGASGNWSSPEPICQETNRSFSKIKEGDYNPLFIPVAVMVTAFSGLAFLIWLARRLKKGKKSQERMDDPY
Question: How did the “glycan array binding signal (z-score)” value (Gal3S(b1-4)Glc6S) turn out when B1 was run?
Answer: 1.41

Question: And the “glycan array binding signal (z-score)” value (Gal3S(b1-4)GlcNAc)?
Answer: -0.247

Question: And the “glycan array binding signal (z-score)” value (Gal3S(b1-4)GlcNAc6S)?
Answer: 0.952

Question: What about the “glycan array binding signal (z-score)” value [1] of the same binder?
Answer: 0.329

Question: What about the “glycan array binding signal (z-score)” value (Gal3S4S(b1-4)GlcNAc) of the same binder?
Answer: 1.15

Question: And the “glycan array binding signal (z-score)” value (Gal3S6S(b1-4)GlcNAc)?
Answer: 1.29

Question: And the “glycan array binding signal (z-score)” value (Gal3S6S(b1-4)GlcNAc6S)?
Answer: 4.38

Question: And the “glycan array binding signal (z-score)” value (Gal4S(b1-4)GlcNAc)?
Answer: 0.028

Question: And the “glycan array binding signal (z-score)” value (Gal4S6S(b1-4)GlcNAc)?
Answer: 1.26

Question: What about the “glycan array binding signal (z-score)” value (Gal6S(b1-4)Glc) of the same binder?
Answer: -0.052

Question: And the “glycan array binding signal (z-score)” value (Gal6S(b1-4)Glc6S)?
Answer: 1.58

Question: And the “glycan array binding signal (z-score)” value (Gal6S(b1-4)GlcNAc)?
Answer: 0.416

Question: And the “glycan array binding signal (z-score)” value (Gal6S(b1-4)GlcNAc6S)?
Answer: 1.56

Question: What about the “glycan array binding signal (z-score)” value (GalNAc(a1-3)Gal) of the same binder?
Answer: -0.212

Question: And the “glycan array binding signal (z-score)” value (GalNAc(a1-3)GalNAc)?
Answer: -0.238

Question: What about the “glycan array binding signal (z-score)” value (GalNAc(b1-3)Gal) of the same binder?
Answer: -0.436

Question: And the “glycan array binding signal (z-score)” value [2]?
Answer: -0.276

Question: And the “glycan array binding signal (z-score)” value (GalNAc(b1-3)GalNAc)?
Answer: -0.258

Question: What about the “glycan array binding signal (z-score)” value (GalNAc(b1-4)GlcNAc) of the same binder?
Answer: -0.456

Question: What about the “glycan array binding signal (z-score)” value (Glc(a1-4)Glc) of the same binder?
Answer: -0.339

Question: And the “glycan array binding signal (z-score)” value (Glc(a1-6)Glc(a1-6)Glc)?
Answer: -0.045

Question: What about the “glycan array binding signal (z-score)” value (Glc(b1-4)Glc) of the same binder?
Answer: 0.296

Question: And the “glycan array binding signal (z-score)” value (Glc(b1-6)Glc)?
Answer: -0.127

Question: And the “glycan array binding signal (z-score)” value (GlcA(b1-3)Gal)?
Answer: -0.09

Question: What about the “glycan array binding signal (z-score)” value (GlcA(b1-3)GlcNAc) of the same binder?
Answer: -0.009

Question: And the “glycan array binding signal (z-score)” value (GlcA(b1-6)Gal)?
Answer: 0.307

Question: What about the “glycan array binding signal (z-score)” value [3] of the same binder?
Answer: -0.209

Question: What about the “glycan array binding signal (z-score)” value [4] of the same binder?
Answer: -0.561

Question: What about the “glycan array binding signal (z-score)” value [5] of the same binder?
Answer: -0.172

Question: What about the “glycan array binding signal (z-score)” value [6] of the same binder?
Answer: 0.511

Question: What about the “glycan array binding signal (z-score)” value (GlcNAc(b1-3)Gal) of the same binder?
Answer: -0.015

Question: What about the “glycan array binding signal (z-score)” value [7] of the same binder?
Answer: -0.272

Question: What about the “glycan array binding signal (z-score)” value (GlcNAc(b1-3)Gal(b1-4)Glc) of the same binder?
Answer: -0.116

Question: And the “glycan array binding signal (z-score)” value [8]?
Answer: 0.011

Question: What about the “glycan array binding signal (z-score)” value [9] of the same binder?
Answer: -0.337

Question: And the “glycan array binding signal (z-score)” value (GlcNAc(b1-3)GalNAc)?
Answer: -0.288

Question: What about the “glycan array binding signal (z-score)” value (GlcNAc(b1-3)Man) of the same binder?
Answer: 0.432
